In the supplement of paper PMC3334620:
The full ranking holds about 33,000 sequences; the median of “E-score (-0.5 to 0.5)” is about -0.013, and the highest 2% start at about 0.3. Some of the results follow.

biological target: T1, Msn1 (UniProt P22148); test: PBM E-score (8-mer binding enrichment) (E-score (-0.5 to 0.5)); higher = stronger / more preferred TF binding; most listed sequences are background and not binding sites; settings: protein concentration: 200 nM; construct: GST-full length
T1 sequence: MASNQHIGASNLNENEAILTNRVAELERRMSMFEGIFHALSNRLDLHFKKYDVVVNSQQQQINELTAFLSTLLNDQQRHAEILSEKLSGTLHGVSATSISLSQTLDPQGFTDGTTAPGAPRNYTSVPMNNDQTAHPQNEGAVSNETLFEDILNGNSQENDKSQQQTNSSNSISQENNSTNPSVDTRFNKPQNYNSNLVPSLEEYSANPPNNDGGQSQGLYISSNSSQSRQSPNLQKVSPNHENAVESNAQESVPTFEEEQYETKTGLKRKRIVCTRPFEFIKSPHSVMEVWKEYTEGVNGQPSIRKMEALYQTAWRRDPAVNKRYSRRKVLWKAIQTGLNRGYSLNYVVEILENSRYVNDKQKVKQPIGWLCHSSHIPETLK
Experimental: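 Universal 'all 10-mer' protein binding microarrays (Agilent AMADID 015681) probed with GST-tagged S. cerevisiae TFs (full-length or DBD) made by in vitro transcription/translation (PURExpress), about 100-200 nM. Bound TF was detected with fluorescent anti-GST. Each ungapped 8-mer (which stands for itself and its reverse complement) is scored by the PBM enrichment score (E-score), a modified Wilcoxon-Mann-Whitney statistic from -0.5 to +0.5, computed with the Universal PBM Analysis Suite. Scale: above 0.35 generally sequence-specific binding.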

Row | Sequence | PBM E-score
1 | AAGGAATG | -0.066
2 | ATCTTCAA | 0.151
3 | AATATGAG | -0.00863
4 | GACGAATA | 0.223
5 | CGTACAGA | 0.132
6 | ACTGTACC | -0.0495
7 | GAGAGACA | 0.246
8 | CGTAATCC | -0.11
9 | AGCCGCAG | -0.298
10 | GTCTGCAA | 0.214
11 | AGGGGATC | -0.335
12 | AGCGACCC | -0.268
13 | ATTGTCAG | 0.218
14 | AGATAAGG | -0.0875
15 | TAGTGACA | 0.277
16 | GGTAGCTA | -0.267
17 | AGGTATAT | 0.145
18 | ACAAGCCT | 0.1
19 | CTAAGGTA | 0.0518
20 | ATTAGCGA | 0.0703
21 | ATTACATC | 0.112
22 | ACTTGTCC | 0.467
23 | ATATTCTG | 0.109
24 | CCAGCTCG | -0.151
25 | TCATACAA | 0.0685

Row | Sequence | PBM E-score
26 | CTATTGAA | 0.154
27 | CGGAGGCC | -0.217
28 | CACTGGCA | -0.00368
29 | AATACGTC | 0.165
30 | CTTACGCA | 0.0779
31 | ATTCCGAG | 0.246
32 | AAGCATTC | -0.0183
33 | CGGGGACC | -0.1
34 | ATTTATGC | -0.069
35 | GACAAAAC | 0.451
36 | CTAAGGAC | 0.273
37 | TTAAGTAA | 0.0355
38 | AGTGTATG | 0.0822
39 | AGGCGTCA | -0.264
40 | ACGCTTAG | -0.112
41 | CAGGTTCG | -0.0097
42 | AGACTACA | -0.0509
43 | AATCGTCT | 0.174
44 | TCCTCAAA | 0.0878
45 | CGCTCCCC | -0.355
46 | ACGATTCA | 0.00913
47 | AGGGTAAT | -0.0219
48 | TATGCAAA | 0.0819
49 | GGCCGACC | -0.194
50 | AATGCATC | -0.109

Row | Sequence | PBM E-score
51 | AACGGGCA | -0.00073
52 | AGAATATA | -0.0148
53 | AAATGCTA | 0.138
54 | CTCACTAC | 0.117
55 | AAAAAGCT | 0.00709
56 | AATTAGAG | 0.177
57 | ACTCAGTG | -0.0835
58 | CCTCGTCA | 0.203
59 | CTAGTTGA | 0.101
60 | CCCTGTAA | 0.0805
61 | AGTCTAAG | 0.123
62 | CAGCTTGA | -0.0911
63 | ATTCTCAA | 0.148
64 | AGTACATA | 0.221
65 | GCAGTTCC | -0.253
66 | CGAGGGCG | -0.271
67 | ACACAGAC | 0.274
68 | AGGTTAAA | 0.0318
69 | ACCATATC | -0.0262
70 | ATATATGG | 0.106
71 | CAAAGATG | -0.0546
72 | TCCTCGCA | -0.212
73 | CCATCCTC | -0.199
74 | AGTCCTGG | 0.217
75 | CGCATCTC | -0.0148

Row | Sequence | PBM E-score
76 | AGCACTCG | -0.198
77 | AGGAAAGA | -0.113
78 | ACCCGTCG | -0.337
79 | AACTTTGA | 0.12
80 | AGTTTGAC | 0.127
81 | ATCAAGAC | 0.232
82 | CCACTTCC | -0.0564
83 | ACGGATAA | 0.164
84 | CGCGGAAA | 0.0573
85 | CAGCGACA | 0.121
86 | GAAACACA | 0.227
87 | GACCCATC | -0.205
88 | CATTTCGG | 0.133
89 | CTGCTGCA | -0.00425
90 | CGCAGAAC | 0.0202
91 | CTCTACGA | 0.0394
92 | AGCCTCCG | -0.213
93 | TACATAGA | 0.117
94 | CAGTGTCA | -0.105
95 | CCACGCTA | -0.00274
96 | ACAGGTTG | 0.00529
97 | CCGTTTCA | 0.0581
98 | AGAGGGGA | -0.268
99 | GTCTCACA | 0.211
100 | AACCGGCG | 0.0609

Row | Sequence | PBM E-score
101 | GATTGGAA | 0.00883
102 | AAGTCATA | 0.263
103 | GATACTAA | 0.133
104 | ACGCAAGA | 0.0419
105 | GCAACCGC | 0.0753
106 | ATGGAAAG | 0.0304
107 | CAGGGGGG | -0.464
108 | AGCTATTG | 0.00139
109 | CCTACCGC | -0.191
110 | AGGTGTTC | 0.0847
111 | ATGTCGCA | 0.38
112 | CGGAACAC | 0.171
113 | ATACGCGC | -0.0824
114 | AGTCGTTG | -0.0976
115 | CAGAGGGA | -0.175
116 | AAGAAGAA | 0.0585
117 | GCGATATA | -0.0439
118 | ATACTTAC | 0.00959
119 | GAATCAAA | 0.112
120 | CGATGCAG | -0.162
121 | ACTTCCTG | -0.0301
122 | TAATGCCA | -0.0104
123 | GCCTCAAC | -0.137
124 | ATAAGGGG | -0.179
125 | ACTTATCA | 0.0602

Row | Sequence | PBM E-score
126 | AGTTGTCA | 0.295
127 | TAGACACA | 0.163
128 | TCTATCCA | 0.0076
129 | ACCCCGAC | -0.166
130 | CGGGCTAA | -0.144
131 | ACTTACCA | 0.0149
132 | CCTTGGGA | 0.137
133 | AGTCGAGG | -0.0749
134 | TAATAGAA | 0.115
135 | AGGGTCAG | -0.2
136 | AGACAGAC | 0.279
137 | CTCAACTA | 0.0111
138 | GTAGACTA | -0.241
139 | ATATAGAA | 0.12
140 | GAACGAAC | -0.0579
141 | AAAGTCCA | 0.378
142 | AATCCCTA | -0.0113
143 | ACTATCCT | -0.0439
144 | AGGGCTAG | -0.0949
145 | AGCCTGGA | -0.247
146 | CACAGTTC | 0.00142
147 | CACTTTCG | 0.19
148 | CATAGCGA | -0.0154
149 | CGTCACCC | -0.163
150 | AGGTGGGG | -0.147

Row | Sequence | PBM E-score
151 | GTCCCTGA | 0.187
152 | AAAATGGC | 0.185
153 | GAGATGGC | 0.0672
154 | GTCCAGAA | 0.195
155 | CCTTATGC | -0.0713
156 | GAGCTATC | -0.159
157 | ATGACTGG | -0.114
158 | CCGTCCCG | -0.137
159 | GCGGCGGA | 0.0803
160 | CCGGCAAC | -0.107
161 | AGGGACGA | 0.261
162 | CAAGTAGA | -0.00656
163 | TGCATTAA | 0.0944
164 | TCTTACCA | -0.111
165 | CTAGGAAA | -0.145
166 | CCACTAAC | -0.00382
167 | TGCATGAA | 0.011
168 | CACCGTCG | -0.196
169 | ATTTTGAA | 0.126
170 | GACTCAAC | 0.0406
171 | AGCAGATA | -0.101
172 | CTTGCATA | -0.0469
